# Assay results: the supplement of paper PMC8728848
# The list shows a part of the results.
# B1: PfulAvr4 (Pseudocercospora fuligena) (protein)
# chain: HHHHHHDYKDDDDKTYVQDKTPAFVCPAADIKTTKCLGPKDCLYPSPKTCNGYIQCSPADDSYLTGIIHEMPCPSGLLWNDNKKWCDWPENTTCGLVKSAGATEVDATKQGPTPGKYHG
# Tests used:
# Assay in all cases: glycan array binding signal (z-score within array); higher = stronger binding
# Conditions in all cases: glycan notation: IUPAC condensed, linker removed
# [1] = molecular target: Fuc(a1-2)[Gal(a1-3)]Gal(b1-4)GlcNAc(b1-2)Man(a1-3)[Fuc(a1-2)[Gal(a1-3)]Gal(b1-4)GlcNAc(b1-2)Man(a1-6)]Man(b1-4)GlcNAc(b1-4)[Fuc(a1-6)]GlcNAc
# Procedure, shortened: (§1)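 Glycan array binding is given as a within-array Z-score, which can be read as non-binding when negative. The arrays, 3228 of them, came from the Consortium for Functional Glycomics database and were retained only where the protein sequence was available. Z-scores were averaged across arrays of the same protein sequence at different concentrations or buffers and across linkers.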
# [2] = molecular target: Fuc(a1-2)[Gal(a1-3)]Gal(b1-4)GlcNAc(b1-3)GalNAc
# Procedure, shortened: as §1
# [3] = molecular target: Fuc(a1-2)[Gal(a1-3)]Gal(b1-4)GlcNAc(b1-3)[Fuc(a1-2)[Gal(a1-3)]Gal(b1-4)GlcNAc(b1-6)]GalNAc
# Procedure, shortened: as §1
# [4] = molecular target: Fuc(a1-2)[Gal(a1-3)]Gal(b1-4)GlcNAc(b1-6)GalNAc
# Procedure, shortened: as §1
# [5] = molecular target: Fuc(a1-2)[Gal(a1-3)]Gal(b1-4)[Fuc(a1-3)]Glc
# Procedure, shortened: as §1
# [6] = molecular target: Fuc(a1-2)[Gal(a1-3)]Gal(b1-4)[Fuc(a1-3)]GlcNAc
# Procedure, shortened: as §1
# [7] = molecular target: Fuc(a1-2)[Gal(a1-3)]Gal(b1-4)[Fuc(a1-3)]GlcNAc(b1-3)GalNAc
# Procedure, shortened: as §1
# [8] = molecular target: Fuc(a1-2)[Gal(a1-4)]Gal(b1-4)GlcNAc
# Procedure, shortened: as §1
# [9] = molecular target: Fuc(a1-2)[GalNAc(a1-3)]Gal
# Procedure, shortened: as §1
# [10] = molecular target: Fuc(a1-2)[GalNAc(a1-3)]Gal(b1-3)GalNAc(a1-3)[Fuc(a1-2)]Gal(b1-4)GlcNAc
# Procedure, shortened: as §1
# [11] = molecular target: Fuc(a1-2)[GalNAc(a1-3)]Gal(b1-3)GalNAc(b1-3)Gal(a1-4)Gal(b1-4)Glc
# Procedure, shortened: as §1
# [12] = molecular target: Fuc(a1-2)[GalNAc(a1-3)]Gal(b1-3)GlcNAc
# Procedure, shortened: as §1
# [13] = molecular target: Fuc(a1-2)[GalNAc(a1-3)]Gal(b1-3)GlcNAc(b1-2)Man(a1-3)[Fuc(a1-2)[GalNAc(a1-3)]Gal(b1-3)GlcNAc(b1-2)Man(a1-6)]Man(b1-4)GlcNAc(b1-4)GlcNAc
# Procedure, shortened: as §1
# [14] = molecular target: Fuc(a1-2)[GalNAc(a1-3)]Gal(b1-3)GlcNAc(b1-2)Man(a1-3)[Fuc(a1-2)[GalNAc(a1-3)]Gal(b1-3)GlcNAc(b1-2)Man(a1-6)]Man(b1-4)GlcNAc(b1-4)[Fuc(a1-6)]GlcNAc
# Procedure, shortened: as §1
# [15] = molecular target: Fuc(a1-2)[GalNAc(a1-3)]Gal(b1-3)GlcNAc(b1-3)GalNAc
# Procedure, shortened: as §1
# [16] = molecular target: Fuc(a1-2)[GalNAc(a1-3)]Gal(b1-3)GlcNAc(b1-6)GalNAc
# Procedure, shortened: as §1
# [17] = molecular target: Fuc(a1-2)[GalNAc(a1-3)]Gal(b1-4)Glc
# Procedure, shortened: as §1
# [18] = molecular target: Fuc(a1-2)[GalNAc(a1-3)]Gal(b1-4)GlcNAc
# Procedure, shortened: as §1
# [19] = molecular target: Fuc(a1-2)[GalNAc(a1-3)]Gal(b1-4)GlcNAc(b1-2)Man
# Procedure, shortened: as §1
# [20] = molecular target: Fuc(a1-2)[GalNAc(a1-3)]Gal(b1-4)GlcNAc(b1-2)Man(a1-3)[Fuc(a1-2)[GalNAc(a1-3)]Gal(b1-4)GlcNAc(b1-2)Man(a1-6)]Man(b1-4)GlcNAc(b1-4)GlcNAc
# Procedure, shortened: as §1
# [21] = molecular target: Fuc(a1-2)[GalNAc(a1-3)]Gal(b1-4)GlcNAc(b1-2)Man(a1-3)[Fuc(a1-2)[GalNAc(a1-3)]Gal(b1-4)GlcNAc(b1-2)Man(a1-6)]Man(b1-4)GlcNAc(b1-4)[Fuc(a1-6)]GlcNAc
# Procedure, shortened: as §1
# [22] = molecular target: Fuc(a1-2)[GalNAc(a1-3)]Gal(b1-4)GlcNAc(b1-3)Gal(b1-4)GlcNAc
# Procedure, shortened: as §1
# [23] = molecular target: Fuc(a1-2)[GalNAc(a1-3)]Gal(b1-4)GlcNAc(b1-3)Gal(b1-4)GlcNAc(b1-3)Gal(b1-4)GlcNAc
# Procedure, shortened: as §1
# [24] = molecular target: Fuc(a1-2)[GalNAc(a1-3)]Gal(b1-4)GlcNAc(b1-3)GalNAc
# Procedure, shortened: as §1
# [25] = molecular target: Fuc(a1-2)[GalNAc(a1-3)]Gal(b1-4)GlcNAc(b1-3)[Fuc(a1-2)[GalNAc(a1-3)]Gal(b1-4)GlcNAc(b1-6)]GalNAc
# Procedure, shortened: as §1
# [26] = molecular target: Fuc(a1-2)[GalNAc(a1-3)]Gal(b1-4)GlcNAc(b1-6)GalNAc
# Procedure, shortened: as §1
# [27] = molecular target: Fuc(a1-2)[GalNAc(a1-3)]Gal(b1-4)[Fuc(a1-3)]GlcNAc
# Procedure, shortened: as §1
# [28] = molecular target: Fuc(a1-2)[GalNAc(a1-3)]Gal(b1-4)[Fuc(a1-3)]GlcNAc(b1-3)GalNAc
# Procedure, shortened: as §1
# [29] = molecular target: Fuc(a1-2)[GalNAc(a1-4)]Gal(b1-4)GlcNAc
# Procedure, shortened: as §1
# [30] = molecular target: Fuc(a1-2)[GalNAc(b1-3)]Gal
# Procedure, shortened: as §1
# Fuc(a1-3)GlcNAc = molecular target: Fuc(a1-3)GlcNAc
# Procedure, shortened: as §1
# [31] = molecular target: Fuc(a1-3)[Gal(b1-4)]Glc6S
# Procedure, shortened: as §1
# [32] = molecular target: Fuc(a1-3)[Gal(b1-4)]GlcNAc
# Procedure, shortened: as §1
# [33] = molecular target: Fuc(a1-3)[Gal(b1-4)]GlcNAc(b1-2)Man
# Procedure, shortened: as §1
# [34] = molecular target: Fuc(a1-3)[Gal(b1-4)]GlcNAc(b1-2)Man(a1-3)[Fuc(a1-3)[Gal(b1-4)]GlcNAc(b1-2)Man(a1-6)]Man(b1-4)GlcNAc(b1-4)GlcNAc
# Procedure, shortened: as §1
# [35] = molecular target: Fuc(a1-3)[Gal(b1-4)]GlcNAc(b1-2)Man(a1-3)[Fuc(a1-3)[Gal(b1-4)]GlcNAc(b1-2)Man(a1-6)]Man(b1-4)GlcNAc(b1-4)[Fuc(a1-6)]GlcNAc
# Procedure, shortened: as §1
# [36] = molecular target: Fuc(a1-3)[Gal(b1-4)]GlcNAc(b1-3)Gal(b1-3)[Fuc(a1-4)]GlcNAc
# Procedure, shortened: as §1
# [37] = molecular target: Fuc(a1-3)[Gal(b1-4)]GlcNAc(b1-3)Gal(b1-4)[Fuc(a1-3)]GlcNAc
# Procedure, shortened: as §1
# [38] = molecular target: Fuc(a1-3)[Gal(b1-4)]GlcNAc(b1-3)Gal(b1-4)[Fuc(a1-3)]GlcNAc(b1-3)Gal(b1-4)[Fuc(a1-3)]GlcNAc
# Procedure, shortened: as §1
# [39] = molecular target: Fuc(a1-3)[Gal(b1-4)]GlcNAc(b1-3)GalNAc
# Procedure, shortened: as §1
# [40] = molecular target: Fuc(a1-3)[Gal(b1-4)]GlcNAc(b1-6)GalNAc
# Procedure, shortened: as §1
# [41] = molecular target: Fuc(a1-3)[Gal(b1-4)]GlcNAc(b1-6)[Gal(b1-3)GlcNAc(b1-3)]Gal(b1-4)Glc
# Procedure, shortened: as §1
# [42] = molecular target: Fuc(a1-3)[Gal(b1-4)]GlcNAc6S
# Procedure, shortened: as §1
# [43] = molecular target: Fuc(a1-3)[Gal3S(b1-4)]Glc
# Procedure, shortened: as §1
# [44] = molecular target: Fuc(a1-3)[Gal3S(b1-4)]GlcNAc
# Procedure, shortened: as §1
binder,measurement,setting,value
B1,glycan array binding signal (z-score),[1],-0.144
same,glycan array binding signal (z-score),[2],-0.068
same,glycan array binding signal (z-score),[3],0.392
same,glycan array binding signal (z-score),[4],-0.112
same,glycan array binding signal (z-score),[5],-0.172
same,glycan array binding signal (z-score),[6],-0.096
same,glycan array binding signal (z-score),[7],-0.074
same,glycan array binding signal (z-score),[8],-0.096
same,glycan array binding signal (z-score),[9],-0.132
same,glycan array binding signal (z-score),[10],1.31
same,glycan array binding signal (z-score),[11],0.58
same,glycan array binding signal (z-score),[12],-0.064
same,glycan array binding signal (z-score),[13],-0.019
same,glycan array binding signal (z-score),[14],-0.104
same,glycan array binding signal (z-score),[15],-0.06
same,glycan array binding signal (z-score),[16],-0.192
same,glycan array binding signal (z-score),[17],-0.084
same,glycan array binding signal (z-score),[18],-0.151
same,glycan array binding signal (z-score),[19],-0.126
same,glycan array binding signal (z-score),[20],-0.027
same,glycan array binding signal (z-score),[21],-0.108
same,glycan array binding signal (z-score),[22],-0.209
same,glycan array binding signal (z-score),[23],-0.172
same,glycan array binding signal (z-score),[24],-0.069
same,glycan array binding signal (z-score),[25],-0.133
same,glycan array binding signal (z-score),[26],-0.129
same,glycan array binding signal (z-score),[27],-0.118
same,glycan array binding signal (z-score),[28],-0.034
same,glycan array binding signal (z-score),[29],-0.135
same,glycan array binding signal (z-score),[30],-0.09
same,glycan array binding signal (z-score),Fuc(a1-3)GlcNAc,-0.152
same,glycan array binding signal (z-score),[31],0.087
same,glycan array binding signal (z-score),[32],-0.091
same,glycan array binding signal (z-score),[33],-0.099
same,glycan array binding signal (z-score),[34],-0.13
same,glycan array binding signal (z-score),[35],-0.065
same,glycan array binding signal (z-score),[36],-0.081
same,glycan array binding signal (z-score),[37],0.018
same,glycan array binding signal (z-score),[38],-0.125
same,glycan array binding signal (z-score),[39],0.04
same,glycan array binding signal (z-score),[40],0.008
same,glycan array binding signal (z-score),[41],-0.036
same,glycan array binding signal (z-score),[42],0.177
same,glycan array binding signal (z-score),[43],-0.078
same,glycan array binding signal (z-score),[44],-0.121
